Test results taken from the supplement of paper PMC8728848.
Some of the results follow.

How the values were obtained:
Assay in all cases: glycan array binding signal (z-score within array); higher = stronger binding
Details in all cases: glycan notation: IUPAC condensed, linker removed; mutation: E227G
[1] = target: Gal(b1-4)GalNAc(b1-3)[Fuc(a1-2)]Gal(b1-4)GlcNAc
In short: (§1)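 Arrays were curated from the Consortium for Functional Glycomics database, 3228 in total, and kept only where the protein sequence was available. Binding is expressed as a within-array Z-score. This score was averaged across arrays of the same protein sequence at different concentrations or buffers and across linkers, and negative values can be read as non-binding.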

[2] = target: Gal(b1-4)Glc
In short: as §1

[3] = target: Gal(b1-4)Glc6S
In short: as §1

[4] = target: Gal(b1-4)GlcNAc
In short: as §1

[5] = target: Gal(b1-4)GlcNAc(a1-6)Gal(b1-4)GlcNAc
In short: as §1

[6] = target: Gal(b1-4)GlcNAc(b1-2)Man
In short: as §1

[7] = target: Gal(b1-4)GlcNAc(b1-2)Man(a1-3)Man(b1-4)GlcNAc(b1-4)GlcNAc
In short: as §1

[8] = target: Gal(b1-4)GlcNAc(b1-2)Man(a1-3)[Gal(b1-4)GlcNAc(b1-2)Man(a1-6)]Man(b1-4)GlcNAc(b1-4)GlcNAc
In short: as §1

[9] = target: Gal(b1-4)GlcNAc(b1-2)Man(a1-3)[Gal(b1-4)GlcNAc(b1-2)Man(a1-6)]Man(b1-4)GlcNAc(b1-4)[Fuc(a1-6)]GlcNAc
In short: as §1

[10] = target: Gal(b1-4)GlcNAc(b1-2)Man(a1-3)[Gal(b1-4)GlcNAc(b1-2)Man(a1-6)][Gal(b1-4)GlcNAc(b1-4)]Man(b1-4)GlcNAc(b1-4)[Fuc(a1-6)]GlcNAc
In short: as §1

[11] = target: Gal(b1-4)GlcNAc(b1-2)Man(a1-3)[Gal(b1-4)GlcNAc(b1-2)Man(a1-6)][GlcNAc(b1-4)]Man(b1-4)GlcNAc(b1-4)[Fuc(a1-6)]GlcNAc
In short: as §1

[12] = target: Gal(b1-4)GlcNAc(b1-2)Man(a1-3)[GlcNAc(b1-2)Man(a1-6)]Man(b1-4)GlcNAc(b1-4)GlcNAc
In short: as §1

[13] = target: Gal(b1-4)GlcNAc(b1-2)Man(a1-3)[GlcNAc(b1-4)][Gal(b1-4)GlcNAc(b1-2)Man(a1-6)]Man(b1-4)GlcNAc(b1-4)GlcNAc
In short: as §1

[14] = target: Gal(b1-4)GlcNAc(b1-2)Man(a1-3)[Man(a1-6)]Man(b1-4)GlcNAc(b1-4)GlcNAc
In short: as §1

[15] = target: Gal(b1-4)GlcNAc(b1-2)Man(a1-6)Man(b1-4)GlcNAc(b1-4)GlcNAc
In short: as §1

[16] = target: Gal(b1-4)GlcNAc(b1-2)Man(a1-6)[GlcNAc(b1-2)Man(a1-3)]Man(b1-4)GlcNAc(b1-4)GlcNAc
In short: as §1

[17] = target: Gal(b1-4)GlcNAc(b1-2)Man(a1-6)[Man(a1-3)]Man(b1-4)GlcNAc(b1-4)GlcNAc
In short: as §1

[18] = target: Gal(b1-4)GlcNAc(b1-2)[Gal(b1-4)GlcNAc(b1-4)]Man(a1-3)[Gal(b1-4)GlcNAc(b1-2)Man(a1-6)]Man(b1-4)GlcNAc(b1-4)GlcNAc
In short: as §1

[19] = target: Gal(b1-4)GlcNAc(b1-2)[Gal(b1-4)GlcNAc(b1-4)]Man(a1-3)[Gal(b1-4)GlcNAc(b1-2)[Gal(b1-4)GlcNAc(b1-6)]Man(a1-6)]Man(b1-4)GlcNAc(b1-4)GlcNAc
In short: as §1

[20] = target: Gal(b1-4)GlcNAc(b1-2)[Gal(b1-4)GlcNAc(b1-4)]Man(a1-3)[GlcNAc(b1-4)][Gal(b1-4)GlcNAc(b1-2)Man(a1-6)]Man(b1-4)GlcNAc(b1-4)GlcNAc
In short: as §1

[21] = target: Gal(b1-4)GlcNAc(b1-2)[Gal(b1-4)GlcNAc(b1-4)]Man(a1-3)[GlcNAc(b1-4)][Gal(b1-4)GlcNAc(b1-2)[Gal(b1-4)GlcNAc(b1-6)]Man(a1-6)]Man(b1-4)GlcNAc(b1-4)GlcNAc
In short: as §1

[22] = target: Gal(b1-4)GlcNAc(b1-2)[Gal(b1-4)GlcNAc(b1-6)]Man(a1-6)[Gal(b1-4)GlcNAc(b1-2)Man(a1-3)]Man(b1-4)GlcNAc(b1-4)GlcNAc
In short: as §1

[23] = target: Gal(b1-4)GlcNAc(b1-2)[Gal(b1-4)GlcNAc(b1-6)]Man(a1-6)[Gal(b1-4)GlcNAc(b1-2)Man(a1-3)]Man(b1-4)GlcNAc(b1-4)[Fuc(a1-6)]GlcNAc
In short: as §1

[24] = target: Gal(b1-4)GlcNAc(b1-2)[Gal(b1-4)GlcNAc(b1-6)]Man(a1-6)[GlcNAc(b1-4)][Gal(b1-4)GlcNAc(b1-2)Man(a1-3)]Man(b1-4)GlcNAc(b1-4)GlcNAc
In short: as §1

[25] = target: Gal(b1-4)GlcNAc(b1-2)[Gal(b1-4)GlcNAc(b1-6)]Man(a1-6)[GlcNAc(b1-4)][Gal(b1-4)GlcNAc(b1-2)[Gal(b1-4)GlcNAc(b1-4)]Man(a1-3)]Man(b1-4)GlcNAc(b1-4)[Fuc(a1-6)]GlcNAc
In short: as §1

[26] = target: Gal(b1-4)GlcNAc(b1-3)Gal(b1-3)GalNAc
In short: as §1

[27] = target: Gal(b1-4)GlcNAc(b1-3)Gal(b1-3)GlcNAc
In short: as §1

[28] = target: Gal(b1-4)GlcNAc(b1-3)Gal(b1-4)Glc
In short: as §1

[29] = target: Gal(b1-4)GlcNAc(b1-3)Gal(b1-4)GlcNAc
In short: as §1

[30] = target: Gal(b1-4)GlcNAc(b1-3)Gal(b1-4)GlcNAc(b1-2)Man(a1-3)[Gal(b1-4)GlcNAc(b1-3)Gal(b1-4)GlcNAc(b1-2)Man(a1-6)]Man(b1-4)GlcNAc(b1-4)GlcNAc
In short: as §1

B1: Epa1-NP-mutant-E227G (Candida glabrata), Q6VBJ0 (protein)
chain: MILNPALFLNKCVCIYTTLILLLLTNGGYATSSNDISLASKDPTTFPLGCSPDITTPKKGLSMELYSYDFRKKGSYPCWDAAYLDPNYPRTGYKSHRLLAKVDGVTGNINFYYHATKGCTPQLGHLPASYNYPKPLTMTNFTMLLYGYFRPKVTGFHTFTISADDLLFVNFGAGNAFDCCRRDSSADHFGNYQAYAIWGSKTAKDELTVHLDAGVYYPIRLFYNNRGYDGALSFTFKTESNENTVSDFSEYFFSLDDTEEGCPGLISYDSSCASVKTSKIIGIDYHTETPNENLVPITKTIYHLGIPCTGTTTTPLCGSGFYDPLANKCVTINTSSTSSVTKTTSHTTSKEVSFHSSISSQKTLIPKSIPSPYGPIKSQSIPTEMETSSEISSSEYAFSDVISTPSHSPYTKKHSSLNSSSYTSTVIHSLTSYSISQGIFSTSLSEQNITSKSSTDKFSTATSMSNNITQSSIIISQFSTNNENYTTTSMHTSSDKISTETLNNSISTTTSILFSNSSTILKNNTTIISSDKDTHYHPVNPTIVCSTNKTEIICASITQPSISNSNNHWSSSVLKFNSTTVRSTLPSSAGSNETSINVPFSSSTESNTSTSSTSTSNSKMVRSTLPSSAGSNETSISVPFSSSTESNTSTSSTSTSNSKMVRSTLPSSAGSNETSINVPFSSSTESNTSTSSTSTSNSKTVRSTPFSSAGIIMTSLSQRNNKSASSYASSNSKCYNTADSCRKVHSTPSYLLTSSYTSEGVDYDCSLVSTKLKINDTNCVNNKHTTKSCLKTSVTTTIPTLEIKTARKSSSNTIGLHSYPTSSPNKSISSAPIIGYISSFKTIKTASPSYQTSDLTTITTITSLNNPGSTAVENTHESNDKSRKTSSNDISSKHSVIKETKDAVESSNKSHQTNTLKCSSIIIASSSHNSYESLGGTTLTLTLSKVYSPQNNDTLPFLEISEVNPSRTVLPESSKMMQYLTSTEERNKTARNTIATNIVSISTFHFEGEGNAIRMGYTQLLLMLIGIIVMNIGT
glycan array binding signal (z-score) [1]: -0.206 | glycan array binding signal (z-score) [2]: -0.143 | glycan array binding signal (z-score) [3]: 7.04 | glycan array binding signal (z-score) [4]: -0.124 | glycan array binding signal (z-score) [5]: 0.595 | glycan array binding signal (z-score) [6]: -0.147 | glycan array binding signal (z-score) [7]: -0.178 | glycan array binding signal (z-score) [8]: -0.165 | glycan array binding signal (z-score) [9]: -0.15 | glycan array binding signal (z-score) [10]: -0.179 | glycan array binding signal (z-score) [11]: -0.203 | glycan array binding signal (z-score) [12]: -0.162 | glycan array binding signal (z-score) [13]: -0.072 | glycan array binding signal (z-score) [14]: -0.143 | glycan array binding signal (z-score) [15]: -0.117 | glycan array binding signal (z-score) [16]: -0.196 | glycan array binding signal (z-score) [17]: -0.161 | glycan array binding signal (z-score) [18]: -0.072 | glycan array binding signal (z-score) [19]: -0.277 | glycan array binding signal (z-score) [20]: -0.135 | glycan array binding signal (z-score) [21]: -0.062 | glycan array binding signal (z-score) [22]: -0.053 | glycan array binding signal (z-score) [23]: -0.118 | glycan array binding signal (z-score) [24]: -0.215 | glycan array binding signal (z-score) [25]: -0.2 | glycan array binding signal (z-score) [26]: -0.039 | glycan array binding signal (z-score) [27]: -0.301 | glycan array binding signal (z-score) [28]: -0.212 | glycan array binding signal (z-score) [29]: -0.047 | glycan array binding signal (z-score) [30]: 0.084
